Measurements published in the supplement of paper PMC5919970.
Structures can show the parent of a compound that is named as a salt. Whole data set: some 2,000 compounds, median “fractional viability relative to vehicle” near 0.91, cut for the lowest 2% near 0.045. The list shows a part of the results.

System: TYKNU
Assay: fractional viability relative to vehicle; TYKNU is a high-grade serous ovarian cancer line; higher = less growth inhibition
Conditions: 72 h
Summary of the method: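 TYKNU control cells or lentiCRISPRv2 knockout derivatives were seeded at 500 cells per well into drug-stamped 384-well plates holding a ~2100-compound library at 2 or 10 μM, in duplicate. Cells were grown at 37 °C in 5% CO2 in RPMI 1640 with 10% FBS, and drug treatment lasted 72 h. Viability was read by Cell Titer Glo luminescence. Duplicate treatment wells were averaged and normalised to duplicate control wells from the same plate position.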

[1] = 2uM, genotype: DNM1L knockout (sgDNM1L #1)
[2] = 2uM, genotype: sgCTRLA1 (non-targeting control)
[3] = 10uM, genotype: DNM1L knockout (sgDNM1L #1)
[4] = 10uM, genotype: sgCTRLA1 (non-targeting control)

Structure (SMILES) | fractional viability [1] | fractional viability [2] | fractional viability [3] | fractional viability [4]
CC(C)(CO)c1cc2cc(NC(=O)C3(c4ccc5c(c4)OC(F)(F)O5)CC3)c(F)cc2n1C[C@@H](O)CO | 0.741 | 0.998 | 0.693 | 0.859
CC[C@@H]1C(=O)OC[C@@H]1Cc1cncn1C [Pilocarpine HCl] | 0.825 | 1.13 | 0.74 | 1.1
CN1CCc2c(c3ccccc3n2Cc2ccc(C(=O)NO)cc2)C1 [Tubastatin A HCl] | 0.879 | 1.14 | 0.641 | 0.78
CN1CCc2c(c3ccccc3n2Cc2ccc(C(=O)NO)cc2)C1 [Tubastatin A] | 0.784 | 0.956 | 0.901 | 0.697
CS(=O)(=O)OCCCCOS(C)(=O)=O [Busulfan] | 1.02 | 0.987 | 0.811 | 0.911
N#Cc1ccc(-c2csc(NN=C3CCCC3)n2)cc1 [Remodelin] | 0.788 | 0.981 | 0.72 | 0.576
O=C(/C=C/c1ccc(O)cc1)c1ccc(O)cc1O [Isoliquiritigenin] | 0.961 | 1.12 | 0.899 | 0.882
OCc1c[nH]c2ccccc12 [Indole-3-carbinol] | 1.09 | 1.08 | 1.09 | 1.08
N#CCNC(=O)c1ccc(-c2ccnc(Nc3ccc(N4CCOCC4)cc3)n2)cc1 | 0.802 | 1 | 0.183 | 0.236
Cc1ncc(-c2ccnc(Nc3ccc(S(C)(=O)=O)cc3)n2)n1C(C)C | 0.158 | 0.182 | 0.193 | 0.154
Cc1ccc(=O)n(-c2ccccc2)c1 [Pirfenidone] | 1.06 | 1.17 | 0.866 | 1.09
CN(C)C(=O)[C@H](O)[C@H](Cc1ccccc1)NC(=O)c1cc2cc(Cl)ccc2[nH]1 | 1.02 | 1.12 | 0.704 | 1.07
O=C(Oc1cc(S(=O)(=O)c2ccccc2)ccc1[N+](=O)[O-])c1ccc(Cl)cc1 | 0.81 | 0.965 | 0.882 | 0.765
COc1ccc(C2CC(=O)c3c(O)cc(OC4OC(COC5OC(C)C(O)C(O)C5O)C(O)C(O)C4O)cc3O2)cc1OC (stereo unspecified) [Methyl-Hesperidin] | 0.968 | 1.08 | 0.924 | 1.04
Cc1cc(CN2CCN(c3c(Br)cnc4nc(-c5ccc(N6CCN(C)CC6)cc5)[nH]c34)CC2)no1 | 0.257 | 0.787 | 0.0626 | 0.0746
CCN1CCN(Cc2ccc(C(=O)Nc3ccc(C)c(Oc4ccc5c(c4)CC(=O)N5)c3)cc2C(F)(F)F)CC1 | 0.704 | 0.758 | 0.477 | 0.756
N[C@@H](Cc1cc(I)c(Oc2ccc(O)c(I)c2)c(I)c1)C(=O)O [Liothyronine Sodium] | 0.807 | 1.03 | 0.826 | 0.949
COCCCN1CCC(NC(=O)c2cc(Cl)c(N)c3c2OCC3)CC1 [Prucalopride] | 1 | 1.25 | 0.842 | 1.13
COCCCN1CCC(NC(=O)c2cc(Cl)c(N)c3c2OCC3)CC1 [Prucalopride Succinat] | 1.04 | 1.18 | 0.858 | 1.07
C=CC(=O)N1C/C(=C\c2ccc([N+](=O)[O-])cc2)C(=O)/C(=C/c2ccc([N+](=O)[O-])cc2)C1 | 0.0518 | 0.0506 | 0.032 | 0.0122

Structure (SMILES) | fractional viability [1] | fractional viability [2] | fractional viability [3] | fractional viability [4]
CNc1nc(Nc2cn(C(C)(C)C#N)nc2C)ncc1C(F)(F)F | 0.751 | 0.923 | 0.758 | 0.766
COC(=O)C1=C(C#N)NC(C)=C(C(=O)OC(C)C)C1c1cccc([N+](=O)[O-])c1 (stereo unspecified) [Nilvadipine] | 1.13 | 1.08 | 0.854 | 0.905
C[C@H](CCC(=O)O)[C@H]1CC[C@H]2[C@@H]3[C@@H](O)C[C@@H]4C[C@H](O)CC[C@]4(C)[C@H]3CC[C@]12C [Ursodiol] | 0.966 | 1.09 | 0.944 | 0.992
O=C(CCCN1CCN(c2ccccn2)CC1)c1ccc(F)cc1 [Azaperone] | 0.96 | 1.13 | 1.01 | 1.12
O=C(Nc1ccncc1)c1cc([N+](=O)[O-])ccc1Cl | 1.03 | 1.13 | 0.743 | 0.889
C[C@]12CC[C@@H]3c4ccc(OC(=O)c5ccccc5)cc4CC[C@H]3[C@@H]1CC[C@@H]2O [Estradiol Benzoate] | 0.97 | 0.973 | 0.58 | 0.621
Cc1ccc(F)c(NC(=O)Nc2ccc(-c3cccc4[nH]nc(N)c34)cc2)c1 [Linifanib (ABT-869)] | 1.25 | 1.09 | 0.339 | 0.324
CN1CCN(C(c2ccccc2)c2ccccc2)CC1 [Cyclizine 2HCl] | 0.914 | 1.17 | 0.803 | 0.991
CC(C)OC(=O)C1=CN(C(=O)c2ccc(F)c(F)c2)CC(C)(C)c2c1[nH]c1ccccc21 | 0.991 | 1.05 | 0.865 | 0.965
O=C(/C=C\n1cnc(-c2cc(C(F)(F)F)cc(C(F)(F)F)c2)n1)N1CC(F)(F)C1 | 0.0907 | 0.125 | 0.0786 | 0.0883
CC(C)(C)[N+]([O-])=Cc1ccc(S(=O)(=O)O)cc1S(=O)(=O)O | 0.858 | 1.09 | 0.683 | 0.989
OCCN(CCO)c1nc(N2CCCCC2)c2nc(N(CCO)CCO)nc(N3CCCCC3)c2n1 [Dipyridamole] | 0.84 | 1.27 | 0.779 | 0.978
Cc1ccc(NC(=O)c2cccc(C(C)(C)C#N)c2)cc1Nc1ccc2ncn(C)c(=O)c2c1 | 0.244 | 0.283 | 0.27 | 0.31
CC[C@H](CO)Nc1nc(NCc2ccccc2)c2ncn(C(C)C)c2n1 [Roscovitine (Seliciclib,CYC202)] | 1.06 | 1.15 | 0.768 | 1.01
CC[C@@H](C)Nc1cc(C(=O)N[C@H]2C[C@H]3CC[C@@H](C2)N3c2ccc(C(=O)C3CC3)cn2)c(C)cc1C(N)=O | 0.244 | 0.208 | 0.231 | 0.221
CC(C)(CO)C(O)C(=O)NCCC(=O)O [Calcium D-Panthotenate] | 0.892 | 1.03 | 0.583 | 0.892
Cc1c(-c2cnccn2)ssc1=S [Oltipraz] | 0.804 | 0.973 | 0.806 | 0.762
Cc1cccc(CC(=O)N2CCc3c2ccc(-c2cn(C)c4ncnc(N)c24)c3F)n1 | 0.959 | 0.983 | 0.848 | 0.955
COc1ccc(-n2c(SCCCN3C(=O)c4cccc5cccc(c45)C3=O)nnc2-c2ccncc2)cc1 | 0.722 | 0.945 | 0.895 | 0.738
